This is one part of the list. The full chains were built here from the parent and the listed change. Values near 0.05 are background.
B1: TEV protease; numbered along this chain (parent)
chain: MGESLFKGPRDYNPISSSICHLTNESDGHTTSLYGIGFGPFIITNKHLFRRNNGTLVVQSLHGVFKVKDTTTLQQHLVDGRDMIIIRMPKDFPPFPQKLKFREPQREERICLVTTNFQTKSMSSMVSDTSCTFPSGDGIFWKHWIQTKDGQCGSPLVSTRDGFIVGIHSASNFTNTNNYFTSVPKNFMELLTNQEAQQWVSGWRLNADSVLWGGHKVFMVKPEEPFQPVKEATQL

Variants of: B1
Test: raw area under fraction-flipped curve 0-4 h after induction (AUC4h, not background-subtracted), DNA-recorder readout of cleavage of the substrate (dimensionless); higher = more cleavage of the substrate by the protease variant
Details: temperature: 34 °C; time window: 0-4 h after rhamnose induction
Experimental: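 In vivo DNA recorder in E. coli TOP10(DE3) ΔrhaA at 34 °C. Each TEVp single-site mutant (parent TEVp 0) is paired with a single-site variant of the 7-mer TEVs (canonical ENLYFQ|S). The substrate sits between flexible linkers in a Bxb1-sfGFP-TEVs-SsrA fusion, so cleavage stabilises Bxb1 and speeds flipping of a recombination array, read by NGS. The value is the raw area under the fraction-flipped curve over 0-4 h after rhamnose induction (AUC4h), with ≥20 reads per time point. It is not background-subtracted; inactive controls average about 0.047.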
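Also: Bxb1 expression induced with 0.2% (w/v) L-rhamnose at OD600 near 0.5, cultures sampled hourly, flipped fraction per protease–substrate barcode pair counted by paired-end Illumina sequencing.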

| Variant | area with substrate ENLAFQS | area with substrate ENLCFQS | area with substrate ENLDFQS | area with substrate ENLFFQS | area with substrate ENLHFQS | area with substrate ENLIFQS | area with substrate ENLKFQS | area with substrate ENLLFQS | area with substrate ENLNFQS | area with substrate ENLPFQS | area with substrate ENLQFQS | area with substrate ENLRFQS | area with substrate ENLSFQS | area with substrate ENLWFQS | area with substrate ENLEFQS | area with substrate ENLTFQS | area with substrate ENLVFQS | area with substrate ENLMFQS | area with substrate ENLGFQS |
| --- | --- | --- | --- | --- | --- | --- | --- | --- | --- | --- | --- | --- | --- | --- | --- | --- | --- | --- | --- |
| G54V | 0.0601 | 0.0598 | 0.067 | 0.0662 | 0.054 | 0.0392 | 0.0618 | 0.0423 | 0.0546 | 0.062 | 0.0558 | 0.0549 | 0.0665 | 0.0585 |  |  |  |  |  |
| F49I | 0.0625 | 0.0499 | 0.0579 | 0.0676 |  | 0.0651 | 0.0632 | 0.0596 | 0.0624 | 0.0524 |  |  | 0.0538 |  | 0.0557 | 0.0606 |  |  |  |
| F49A | 0.0558 | 0.0314 | 0.0598 | 0.06 | 0.0588 | 0.0577 | 0.0593 | 0.0574 | 0.0603 |  | 0.057 | 0.0714 | 0.0519 |  | 0.0577 |  | 0.0636 |  |  |
| H62A | 0.0533 | 0.0699 | 0.0586 | 0.0728 | 0.078 |  | 0.0745 |  | 0.085 | 0.0671 |  | 0.0894 | 0.0278 |  | 0.0652 |  | 0.0606 |  |  |
| G37I | 0.0584 |  | 0.0511 | 0.0663 | 0.0671 | 0.0543 | 0.0644 | 0.0646 | 0.0463 | 0.0628 |  |  |  | 0.0919 | 0.0617 |  | 0.0334 | 0.0539 |  |
| G37W | 0.0586 | 0.0711 | 0.0551 | 0.0829 | 0.0472 | 0.0796 | 0.0588 | 0.0696 |  | 0.0611 |  | 0.0507 | 0.0473 | 0.0638 | 0.0576 |  | 0.0607 |  |  |
| G37T | 0.0562 |  | 0.0561 | 0.0596 | 0.0569 |  | 0.0589 | 0.0748 | 0.0654 | 0.0559 | 0.0588 |  | 0.0483 | 0.0604 |  |  |  |  | 0.0613 |
| T70E | 0.0421 |  | 0.0796 | 0.0665 | 0.0486 |  |  |  | 0.0658 | 0.0441 |  |  | 0.0593 |  | 0.0861 | 0.0543 | 0.0884 |  |  |
| T70I | 0.0645 |  | 0.0672 | 0.0843 | 0.0693 | 0.0692 | 0.0603 | 0.0639 | 0.0632 |  | 0.0698 | 0.0751 | 0.062 |  | 0.0595 |  |  | 0.0712 |  |
| T44P | 0.0458 | 0.0345 | 0.0432 | 0.0523 | 0.043 |  | 0.048 | 0.0455 | 0.035 | 0.0319 | 0.0333 | 0.0495 | 0.0358 | 0.0387 | 0.0478 |  | 0.0406 | 0.043 |  |
| D69E | 0.0654 | 0.0534 | 0.0665 | 0.0729 |  |  | 0.0694 |  | 0.0629 | 0.072 |  |  | 0.0643 |  |  |  | 0.0755 |  |  |
| N52C | 0.0747 |  | 0.0646 |  | 0.0701 | 0.0665 | 0.0662 | 0.0687 | 0.0712 | 0.0591 | 0.0408 | 0.0723 | 0.0536 | 0.0677 |  |  |  |  | 0.069 |
| N52P | 0.0497 |  | 0.0687 | 0.144 |  |  | 0.0699 | 0.0492 |  |  |  | 0.0671 | 0.0653 |  | 0.0673 | 0.0617 | 0.0753 | 0.0819 |  |
| N53C | 0.0759 |  | 0.0683 | 0.0963 | 0.0618 | 0.0194 | 0.0894 | 0.087 |  | 0.0733 | 0.0677 | 0.083 | 0.0712 | 0.0626 |  | 0.0414 | 0.0801 | 0.0707 | 0.0723 |
| N53V | 0.0634 | 0.0662 | 0.0513 | 0.0773 | 0.0488 | 0.0702 | 0.0596 |  | 0.067 | 0.0647 | 0.0791 |  | 0.0599 | 0.0677 | 0.0757 |  | 0.0701 |  | 0.0719 |
| N53M | 0.0643 | 0.0627 | 0.0619 | 0.0735 |  | 0.0612 | 0.0642 | 0.0786 | 0.0633 | 0.0605 | 0.0438 | 0.0683 | 0.0685 | 0.0582 | 0.0629 |  | 0.0527 | 0.0676 |  |
| N53S | 0.0691 | 0.0739 |  | 0.0786 | 0.0749 | 0.0832 | 0.0811 |  | 0.0729 | 0.06 |  | 0.0725 | 0.0671 | 0.0547 |  |  | 0.0928 |  | 0.056 |
| L61W | 0.0752 |  | 0.0643 | 0.0783 | 0.0586 | 0.084 | 0.0728 |  | 0.0802 |  |  | 0.0682 |  | 0.0667 |  |  |  |  |  |
| F41I | 0.0589 | 0.0624 | 0.063 |  | 0.078 | 0.0764 | 0.0709 | 0.0742 | 0.0656 | 0.0627 |  | 0.0748 | 0.07 |  | 0.0631 |  | 0.0714 | 0.0647 |  |
| I36T | 0.0661 | 0.0746 | 0.0543 |  | 0.0603 | 0.0537 | 0.0693 | 0.0405 | 0.0727 | 0.0554 | 0.0519 | 0.0767 |  | 0.0629 |  |  |  |  | 0.0636 |
| I42R | 0.0528 | 0.0481 | 0.0553 | 0.058 | 0.0438 | 0.0499 | 0.0625 | 0.0488 | 0.0509 |  | 0.044 | 0.0381 | 0.0455 | 0.0358 | 0.0394 |  | 0.0325 | 0.023 |  |
| I42A | 0.0523 | 0.0569 | 0.0525 | 0.0493 | 0.0567 | 0.0666 | 0.0607 | 0.0779 | 0.0556 | 0.0433 |  | 0.0487 | 0.0442 | 0.0522 | 0.0442 |  |  |  |  |
| I42L | 0.048 |  | 0.0613 | 0.0936 | 0.0766 | 0.0735 | 0.0719 | 0.0643 | 0.0775 | 0.0698 |  | 0.072 |  | 0.0808 | 0.0601 |  | 0.0797 | 0.0726 |  |
| I42F | 0.0512 | 0.0482 | 0.057 | 0.0448 | 0.0567 |  |  |  | 0.0538 | 0.0526 | 0.0646 |  | 0.0482 | 0.0463 | 0.0501 |  |  | 0.0506 |  |
| R50P | 0.0727 | 0.0677 | 0.0548 | 0.0764 | 0.0676 | 0.0674 | 0.0702 | 0.0501 | 0.0678 | 0.0592 | 0.0548 | 0.0772 | 0.0398 | 0.0622 | 0.0632 |  |  | 0.063 |  |
| R50K | 0.0587 |  | 0.065 | 0.0726 | 0.0763 | 0.0822 | 0.0807 | 0.0712 | 0.0623 | 0.0628 | 0.0547 | 0.0591 |  | 0.0722 | 0.0397 |  | 0.0747 |  | 0.0603 |

From the supplement of paper PMC12217912
